Screen size: about 4,800 compounds; about 420 (8.8%) showed an effect of 50% or more. Some of the results follow.
System: Plasmodium falciparum
Assay: Confirmatory screen in NF54 nanoGlo assay, in single point, at 2uM, 72h
Type: functional, Erythrocyte
Details: timepoint 72 hour

Compound | % Inhibition
COc1ccc2[nH]c3c(c2c1)CCN(C(=O)c1ccc(C)c(C)c1)[C@@H]3c1ccccc1OC | 84%
O=c1[nH]c(=O)n(-c2ncnc3c2cnn3-c2ccccc2)cc1Cl | 5%
CCO/N=C(\Nc1ccccc1)c1nonc1N | -6%
COc1ccc(CC(=O)NCc2nnc3n2CCC3)cc1 | 12%
Cc1cnc(N[C@@H](CN)C2CCCCC2)nc1 | -13%
CS(=O)(=O)C[C@H](NCc1nc2c(s1)CCC2)c1ccccc1 | 0%
C=CCCCN(C)C(=O)c1cc(S(N)(=O)=O)cc(Cl)c1F | 1%
N#CCC(=O)Nc1nc(-c2ccc(Oc3ccccc3)cc2)cs1 | -4%
CC(=O)Nc1ccc(C)cc1S(=O)(=O)N1CC=C(c2c(C)n(Cc3ccccc3C)c3ccccc23)CC1 | 91%
CN1CCC[C@H](C(=O)Nc2nc(C3CC3)cs2)C1 | -12%
CCOc1ccc(Nc2c3ccccc3nc3ccccc23)cc1 | 86%
COc1ccc(CN2CC(C)OC3(CCOC3)C2)cc1Cl (centres undefined) | -3%
CCc1ccc(S(=O)(=O)N2CCn3c(nnc3[C@H]3CCN(C(C)C)C3)C2)cc1 | -8%
O=C(CNC(=O)c1ccc(C(F)(F)F)cc1)Nc1cnc2c(c1)COCC2 | -1%
Cc1cc(C(=O)NCC[C@H](C)n2nc(C)cc2C)c2c(-c3ccc(F)cc3)noc2n1 | -9%
COc1ccccc1Cc1nnc2n1CCCC2 | 0%
CC1CCN(C[C@H](O)C(F)(F)F)CC1 | -7%
Cn1cc(Cl)c(C(=O)Nc2cccc(S(=O)(=O)N3CCOCC3)c2)n1 | -2%
CN(C)S(=O)(=O)c1cc(C(=O)N2CCCO2)co1 | -1%
CCc1ccsc1CN=C(N)NC1CCCCC1 | -3%
CCc1cc(C(=O)N2CCCCC2)c2c(C)nn(-c3ccc(OC)cc3)c2n1 | -5%
O=C(C[C@H](NCCO)C(=O)O)c1ccc2c(c1)CCCC2 | -5%
COCCOCC(=O)Nc1cc(Cl)c(C)cc1Br | -4%
COc1cccc(-c2nc3n(c2C(=O)Nc2cccc(Cl)c2)CCS3(=O)=O)c1 | -3%
Cc1oc(-c2ccc(C(=O)Nc3cccc(Cl)c3C)cc2)nc1COc1ccccc1 | -2%
CCOc1cccc(CNC(=O)c2nn[nH]c2Nc2ccc(C)c(C)c2)c1 | 1%

Compound | % Inhibition
COc1cccc(C(N)=O)c1OCC(=O)NC(C)C | -10%
Cc1nc(NCc2coc3ccccc23)n(C)n1 | -12%
Cc1ccccc1N1CCN(C(=O)CCC2CCN(c3cc(NC4CC4)ncn3)CC2)CC1 | -10%
Cc1cc(OCc2ccc(Br)cc2)c(C)cc1CN1CCOCC1 | -1%
O=C1\N=C(c2ccc(Cl)cc2)/N=N\C(c2ccc(Cl)cc2)=N/[C@]1(O)C(F)(F)F | -18%
O=C(C[C@H]1CCOC1)Nc1cc2ccc(Br)cn2n1 | 1%
CC(C1Cc2ccccc2O1)N(C)Cc1nccn1S(=O)(=O)N(C)C (centres undefined) | -9%
Cc1nccn1-c1ncc(NC(=O)Nc2ccc3c(c2)OCO3)cn1 | 21%
CCN(CC)c1ccc(C(=O)Nc2ccc3nc(N4CCCC4)cc(C)c3c2)cc1 | 85%
O=C(NCc1ccc(N2CCCC2=O)cc1)c1cnc2n1CCCC2 | -14%
O=C(N[C@@H](N1CCCCCC1)C(Cl)(Cl)Cl)c1cccc(Cl)c1 | -10%
COCCNc1ccc(S(N)(=O)=O)cc1N | -3%
Cc1ccc(S(=O)(=O)c2c(C)cc(-c3ccccc3)nc2N2CCOCC2)cc1 | 0%
CS(=O)(=O)N1CCC(C(=O)Nc2cnn(Cc3c(F)cc(F)c(F)c3F)c2)CC1 | 5%
Cc1cccc(N2CCN(CCCNC(=O)CCn3c(=O)c(C)nc4cc(C)c(C)cc43)C[C@@H]2C)c1 | 0%
CCc1ccc(-n2c(=O)[nH]c3nc(N4CCN(c5ccccc5F)CC4)ncc3c2=O)cc1 | -17%
CC1(C)CN(C(=O)c2c[nH]c3ccccc23)CC[S@@+]1[O-] | -8%
CC(C)CN1C(=O)CC[C@@H](C(=O)NCCCOC(C)C)[C@@H]1c1cccnc1 | -13%
O=C(Nc1ccc(Cl)cc1)c1cccc(N2C(=O)C3CCC(c4ccccc4)CC3C2=O)c1 (centres undefined) | -5%
CCN1CCC[C@@H]1CNC(=O)c1[nH]nc2c1CCc1ccccc1-2 | -11%
N#Cc1ccc(NCCc2csc(N)n2)nc1 | -11%
O=C(Nc1ccccc1Cl)Nc1cccc2c(-c3ccccc3)c(C(=O)N3CCOCC3)[nH]c12 | 2%
O=C1NS(=O)(=O)c2cc(N3CCN(Cc4ccccc4)CC3)ccc21 | 2%
CCS(=O)(=O)CCNC(=O)c1cccc(F)c1F | 0%
Cc1ccc2sc(C(=O)N3CC(OCC(=O)N(C)C)C3)cc2c1 | 4%
Cn1c(-c2ccccc2)c[n+](CC(=O)c2ccc3c(c2)OCO3)c1N | 1%

Compound | % Inhibition
CCc1nc(NS(=O)(=O)c2cc(Cl)sc2Cl)no1 | -4%
CCOC(=O)c1c(CN2CCOCC2)n(-c2ccc(C)cc2)c2ccc(Oc3nccc(Nc4ccccc4)c3C#N)cc12 | -5%
Cc1cccc(CN(Cc2cccc(C)n2)C[C@H]2CCCCO2)n1 | 90%
COCCCNC(=O)c1cncc(Br)c1 | -3%
CC(C)NC(=O)C(=O)Nc1nccs1 | -14%
C[C@H](C#N)CN(C)c1nc(C2CC2)nc2scc(-c3ccccc3)c12 | 1%
COc1ccc(F)cc1S(=O)(=O)N1CCc2noc(N)c2C1 | 68%
CCc1n[nH]c(C(=O)N2CC3CCCN3CC2CC)c1Br (centres undefined) | 7%
Cc1ccc(C2=C[C@@H](c3ccc(Cl)cc3)n3nc(NC(=O)c4ccccc4)nc3N2)cc1 | 94%
Cc1cc(S(=O)(=O)NC(=O)CCC(C)C)c(C)o1 | -7%
COC[C@H](NCCc1cc(F)cc2c1OCOC2)C1CC1 | 63%
Cc1cc(C)cc(-n2c(=O)c3sccc3n(CC(=O)NCc3ccccc3Cl)c2=O)c1 | -15%
CCCCNC(=O)Nc1cccc(C#CCN)n1 | -2%
CCN(CCNC(=O)C1CC1c1cccc(Cl)c1Cl)CC(F)F (centres undefined) | -2%
CCC1=Nc2ccccc2N=C(NC(=O)C(C)C)[C@H]1c1ccc(F)cc1 | 20%
Cn1ccc(CNC(=O)c2c(Br)cnn2C)n1 | -15%
CN1C(=O)[C@H](OC(=O)COc2ccccc2)N(c2cccc(Cl)c2)C1=O | -11%
Cc1ccc(-c2cc3ncc(S(=O)(=O)c4ccccc4)c(-c4cccs4)n3n2)cc1 | -14%
Cc1cccn(Cc2nnnn2C2CC2)c1=O | 3%
COc1cc(NC(=O)c2cccc3c(Br)cccc23)ccc1NC(=O)c1ccccc1Cl | 0%
Cc1cc(NC(=O)c2occc2-c2ccccc2)sn1 | -2%
Cc1ccc([C@@H]2CC(=O)Nc3nc(N4CCN(CCO)CC4)nc(O)c32)cc1 | 2%
FC(F)Oc1ccc(-c2c[n+](-c3cccc(C(F)(F)F)c3)c3n2CCCCC3)cc1 | 44%
COc1ccc(CCN2C(=O)COCC2=O)cc1OC | 1%
FC(F)(F)c1nnc(NCc2cncs2)s1 | -11%
Cc1noc(C(C)(C)NC(=O)Nc2c[nH]nc2-c2nccs2)n1 | -7%

Compound | % Inhibition
COc1ccc(S(=O)(=O)N2CC[C@@H]3[C@@H](COCCN3Cc3ccccc3)C2)cc1 | -7%
CC[C@@H](CCNS(=O)(=O)c1cn(C(F)F)nc1C)n1ccc(C(F)(F)F)n1 | -8%
O=C(NC(Cn1ccccc1=O)c1ccccc1)C1CCOC1 (centres undefined) | 2%
Cc1cc(C(=O)NC(C)C)nc(N(C)C)n1 | 2%
CC1(C)C2CCC13CS(=O)(=O)N=C3C2 (centres undefined) | 3%
Cc1nnc(Cn2nnc(C(=O)NCC3(CC(C)C)CCC3)c2C)o1 | -12%
CCc1nnc2ccc(S(=O)(=O)N(CC#N)c3ccccc3)cn12 | -17%
CO[C@@H](CNC(=O)c1nc2n(n1)-c1ccccc1S(=O)(=O)N2)c1ccccc1 | -2%
O=C(c1c(F)cccc1F)N1C[C@@H]2CCCN2c2ccc(C(F)(F)F)cc21 | -13%
Cc1cc(NC(=O)Cn2cc(F)ccc2=O)n(C)n1 | 0%
COc1ccccc1C1CC(=O)Nc2nc(N3CC(C)CC(C)C3)nc(O)c21 (centres undefined) | -8%
Nc1nccnc1C(=O)NCc1ccc(Cn2ccnc2)cc1 | -5%
O=C(NCCc1cccs1)c1cnn2c(-c3ccc4c(c3)OCO4)ccnc12 | -9%
COc1ccc(NC(=O)Cn2c(=O)n(CCc3cccs3)c(=O)c3ccccc32)cc1Cl | 9%
CC(C)NC(=O)N(CC(=O)N1CCn2cccc2[C@H]1c1cccc(F)c1)C1CC1 | 9%
Cc1nn(C)c(Cl)c1NC(=O)OCc1ccc(F)cc1 | -4%
Cc1ccc(-c2nn(Cn3nc(C)c(Cl)c3C)c(-c3ccc(C)cc3)c2Br)cc1 | -9%
CC(=O)NCC(=O)N1CCC(OC(C)(C)C)CC1 | 2%
O=C(c1cnc2ccccc2n1)N1CCCC1 | -4%
COc1ccc(CCNC(=O)Cn2c(=O)ncc3cc(S(=O)(=O)N4CCCC[C@@H]4C)ccc32)cc1OC | 3%
O=C(Nc1nc2cccc(Cl)c2o1)c1cccc(F)c1 | 92%
CCN1CCN(c2nc3ncn(CC(=O)NC(C)C)c(=O)c3s2)CC1 | -14%
Cc1noc(Cn2c(=O)c3ccccc3n(CC(=O)Nc3cccc(Cl)c3C)c2=O)n1 | -3%
Cc1cc(F)ccc1N1CCC[C@H](NC(=O)c2csnc2C)C1=O | -3%
O=C(O)C1c2ccccc2C(=O)N(C2CCCCC2)C1c1ccc(Cl)cc1 (centres undefined) | -9%
O=C(CCn1nc2ccccn2c1=O)N1CC(CC(F)F)C1 | 0%

Reference: ChEMBL document CHEMBL4888484, “Replenishing the malaria drug discovery pipeline: Screening and hit evaluation of the MMV Hit Generation Library 1 (HGL1) against asexual blood stage Plasmodium falciparum ,using a nano luciferase reporter read-out” (2022)
